Measured values from paper PMC4336329 (PLoS ONE, 2015).
In all, about 310,000 compounds went through this assay and about 2,200 (0.71%) showed an effect of 50% or more. Effects have a minus sign here. This is one part of the list.

What follows are compounds tested against human ether-à-go-go-related gene (hERG) potassium channel (human, UniProt Q12809) (assay: primary screen, population patch clamp on CHO cells stably expressing hERG).
Sequence of human ether-à-go-go-related gene (hERG) potassium channel (Q12809 whole entry, looked up): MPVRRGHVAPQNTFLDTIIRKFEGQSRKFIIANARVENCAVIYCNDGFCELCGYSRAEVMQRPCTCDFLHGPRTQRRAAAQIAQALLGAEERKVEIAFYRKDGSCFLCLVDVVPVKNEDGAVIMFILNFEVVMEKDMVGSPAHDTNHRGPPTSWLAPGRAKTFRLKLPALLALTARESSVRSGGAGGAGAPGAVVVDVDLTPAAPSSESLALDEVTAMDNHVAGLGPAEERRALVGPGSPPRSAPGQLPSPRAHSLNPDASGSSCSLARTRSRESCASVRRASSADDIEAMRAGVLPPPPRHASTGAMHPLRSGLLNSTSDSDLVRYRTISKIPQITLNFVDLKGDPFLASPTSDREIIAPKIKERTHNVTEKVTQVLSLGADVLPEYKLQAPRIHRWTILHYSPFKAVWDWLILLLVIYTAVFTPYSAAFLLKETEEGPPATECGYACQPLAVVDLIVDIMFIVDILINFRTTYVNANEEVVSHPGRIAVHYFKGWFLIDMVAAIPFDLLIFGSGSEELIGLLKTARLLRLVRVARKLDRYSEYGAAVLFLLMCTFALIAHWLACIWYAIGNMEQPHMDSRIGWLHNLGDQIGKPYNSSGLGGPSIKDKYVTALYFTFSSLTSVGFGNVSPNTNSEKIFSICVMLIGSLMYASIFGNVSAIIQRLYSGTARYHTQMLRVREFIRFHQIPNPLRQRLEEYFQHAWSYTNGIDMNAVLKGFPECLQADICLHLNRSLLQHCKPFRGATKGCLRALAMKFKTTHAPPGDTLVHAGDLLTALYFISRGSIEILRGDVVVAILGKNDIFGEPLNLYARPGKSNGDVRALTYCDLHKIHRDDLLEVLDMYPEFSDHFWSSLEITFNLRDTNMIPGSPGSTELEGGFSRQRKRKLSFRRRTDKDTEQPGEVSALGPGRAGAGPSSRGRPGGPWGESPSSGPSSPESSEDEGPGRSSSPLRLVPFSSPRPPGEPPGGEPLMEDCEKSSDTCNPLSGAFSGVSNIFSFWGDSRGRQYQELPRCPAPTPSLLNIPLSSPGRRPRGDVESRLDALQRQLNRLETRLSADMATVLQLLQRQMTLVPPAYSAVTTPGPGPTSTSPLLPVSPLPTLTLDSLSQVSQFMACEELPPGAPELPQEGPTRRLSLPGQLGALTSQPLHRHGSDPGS

SMILES	hERG current change (%, negative = inhibition) at 1uM
CCOc1ccc(C2/C(=C(/O)c3ccc4c(c3)CC(C)O4)C(=O)C(=O)N2CCCn2ccnc2)cc1OCC (stereo not shown)	22.3%
CCC(=O)NC(=S)Nc1cccc(Cl)c1N1CCCC1	9.89%
COc1ccc(N2C(=O)C(CC(=O)Nc3ccccc3)N(Cc3ccc4c(c3)OCO4)C2=O)cc1 (stereo not shown)	15.6%
CCOc1ccc(/C=N/OCC(=O)NCc2ccco2)cc1	-10%
O=[N+]([O-])c1ccc(OCCCCCN2CCOCC2)cc1	-24.9%
COc1cc(/C=C2/C(=N)N3N=C(CC(=O)N4CCOCC4)SC3=NC2=O)ccc1OC(C)c1ccccc1 (stereo not shown)	13.9%
Cc1cc2cc(CCNC(=O)c3cccc([N+](=O)[O-])c3)c(=O)[nH]c2cc1C	-37.6%
CCOc1ccc(N=Cc2c(O)n(Cc3ccccc3)c(=S)[nH]c2=O)cc1	12.5%
O=S1(=O)CCN(OCc2ccc(F)cc2Cl)CC1	25.6%
Cc1cc(=O)c(C(=O)O)nn1-c1cccc(C(F)(F)F)c1	-78.9%
CC(=O)NCCC(=O)N1CCCC(N(C)CCc2ccccc2)C1 (stereo not shown)	-5.2%
O=C(Cn1nnc2c(sc3nc4c(c(-c5ccccc5)c32)CCC4)c1=O)c1ccccc1	21.8%
c1nc2nc3c(c(N4CCOCC4)n2n1)CCCC3	-0.603%
C=CCn1c(SCC(=O)Nc2ccc(N3CCOCC3)cc2)nnc1-c1ccncc1	8.97%
O=C(N/N=C/c1ccncc1)c1sc2ccccc2c1Cl	6.42%
COCCCNC(c1ccccc1)c1ccncc1.Cl (stereo not shown)	14.8%
C(=C\c1cccc2ccccc12)/c1nnc(-c2cccs2)o1	52.4%
CCc1ccc(CN(C)C(=O)c2cc(COc3ccc(OC)cc3Cl)on2)nc1	-4.73%
O=C(CSc1nccn1-c1ccccc1)c1ccc(Cl)cc1	1.95%
CC1CCCCC1NC(=O)Cn1nnc2ccccc2c1=O (stereo not shown)	10.6%
CCC(=O)c1ccc(OCC(=O)OCC(=O)c2cc(C)n(CC3CCCO3)c2C)cc1 (stereo not shown)	10.8%
O=C1CCCN1CCCNS(=O)(=O)c1ccc(Br)s1	16.3%

SMILES	hERG current change (%, negative = inhibition) at 1uM
O=C(c1ccc(NC(=S)NCc2ccco2)cc1)N1CCCCC1	13.3%
COc1ccc(NC(=O)c2c(Nc3ccccc3)sc(C(=O)c3ccc(F)cc3)c2N)cc1	-1.58%
O=C(O)COc1ccccc1O	15.3%
CC1C(c2ccccc2)C(C#N)(C#N)C2(C#N)C(=O)NC1(N)C2C (stereo not shown)	0.278%
O=C(CN(C(=O)CCC(=O)Nc1nccs1)c1ccc2c(c1)OCO2)NCC1CCCO1 (stereo not shown)	10.1%
Cc1ccc(OCC(O)Cn2c(NCCc3ccccc3)nc3c2c(=O)[nH]c(=O)n3C)cc1 (stereo not shown)	0.483%
Cc1c(C(=O)N2CCCCC2)c(S(=O)(=O)N(C)Cc2ccccc2)c(C)n1C	4.83%
Cc1nnc(SCC(=O)N(C)C2CCCCC2)s1	2.88%
O=C(c1ccc(F)cc1F)N1CCN(c2n[nH]c(=O)[nH]c2=O)CC1	5.59%
CCN1CCN(CCCNC(=O)c2cc3c(s2)-c2ccccc2OC3)CC1	-23%
O=C1NC(c2ccc(Cl)cc2Cl)Oc2ccccc21 (stereo not shown)	9.56%
CCCCOc1ccc(C(=O)N2CC(C)OC(C)C2)cc1 (stereo not shown)	-1.56%
COc1ccc(S(=O)(=O)NCc2ccccn2)cc1	10.3%
C/C(=N\NS(=O)(=O)c1ccc(Cl)cc1)c1ccc(NC(=O)c2ccco2)cc1	15.1%
O=C(Nc1cc(C(F)(F)F)ccc1N1CCOCC1)c1ccc(Cl)nc1	7.97%
Cc1cccc(C)c1OCC(=O)N(Cc1cccs1)C1CCS(=O)(=O)C1 (stereo not shown)	14.2%
COc1cc(SC)ccc1C(=O)N(C)CC(=O)Nc1cccc2ccccc12	11.4%
CCc1ccccc1-n1c(SCC(=O)c2c(N)n(C3CC3)c(=O)[nH]c2=O)nnc1N1CCOCC1	8.99%
Cc1cc(OCC(=O)Nc2ccccn2)c2c(C)c(C)c(=O)oc2c1	17.7%
O=C(COC(=O)C1(c2ccc(F)cc2)CCCC1)N1CCOCC1	15%
N#Cc1ccccc1OCCCNC1CCCC1.O=C(O)C(=O)O	2.23%
